The list shows a part of the results. Single values are uncertain, as repeats are few or missing.
These compounds were tested on NCI-H460 (assay: cell-surface PD-L1 MFI ratio relative to cisplatin alone (isotype-subtracted); higher = higher PD-L1 surface expression). Details: inducer: cisplatin 4 uM; 10 µM; 24 h.
Protocol: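 A549 and H460 NSCLC cells were treated with each library drug at 10 uM, then with radiation (8 Gy) or cisplatin (4 uM), and incubated for 24 h. Cell-surface PD-L1 was measured by flow cytometry as an MFI ratio: (MFI drug+inducer - MFI isotype)/(MFI inducer alone - MFI isotype). Hits were defined as ratio < 0.75.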

Compound	cell-surface PD-L1 MFI ratio
CC1(C)CCC(c2ccc(Cl)cc2)=C(CN2CCN(c3ccc(C(=O)NS(=O)(=O)c4ccc(N[C@H](CCN5CCOCC5)CSc5ccccc5)c(S(=O)(=O)C(F)(F)F)c4)cc3)CC2)C1 [Navitoclax (ABT-263)]	active: 0.625
CC(ONC(=O)c1cc(C(F)(F)F)cc(C(F)(F)F)c1)C(=O)Nc1ccc(Cl)cc1 (stereo not drawn)	inactive: 1.06
COc1ncc(-c2ccc3nccc(-c4ccnnc4)c3c2)cc1NS(=O)(=O)c1ccc(F)cc1F	active: 0.603
O=C(N/N=C/c1ccc([N+](=O)[O-])o1)c1ccc(O)cc1 [Nifuroxazide]	inactive: 1.31
COc1cccc(OCCCN)c1-c1cc(Nc2cnc(C#N)cn2)n[nH]1	active: 0.532
Nc1ccc2ncnc(NCCc3ccc(Oc4ccccc4)cc3)c2c1	inactive: 1.56
Nc1nc(F)nc2c1ncn2[C@@H]1O[C@H](CO)[C@@H](O)[C@@H]1O [Fludarabine]	inactive: 1.3
COc1ccc(C2CC(c3ccccc3)=NN2c2ccc(S(N)(=O)=O)cc2)cc1 (stereo not drawn)	inactive: 0.784
c1ccc2c(-c3cnn4cc(-c5ccc(N6CCNCC6)cc5)cnc34)ccnc2c1	inactive: 2.12
CN(C)c1cccc(-c2c3c(=O)n(-c4ccccc4Cl)[nH]c3cc(=O)n2C)c1	inactive: 1.34
CCOC(=O)CCNc1cc(N2CCc3ccccc3CC2)nc(-c2ccccn2)n1	active: 0.717
CC(C)CCN1c2nc(Nc3cc(F)c(O)c(F)c3)ncc2N(C)C(=O)C1C (stereo not drawn)	inactive: 1.4
C=CC(=O)N1CCC[C@@H](n2nc(-c3ccc(Oc4ccccc4)cc3)c3c(N)ncnc32)C1 [Ibrutinib]	inactive: 1.65
C[C@@H](Oc1cc(-c2cnn(C3CCNCC3)c2)cnc1N)c1c(Cl)ccc(F)c1Cl	inactive: 1.5
COc1ccc(CCc2nc3cc(-c4c(C)noc4C)ccc3n2C[C@H](C)N2CCOCC2)cc1Cl	inactive: 0.848
CCS(=O)(=O)N1CC(CC#N)(n2cc(-c3ncnc4[nH]ccc34)cn2)C1	inactive: 1.24
CC(=O)O[C@H]1C(=O)[C@@]2(C)[C@H]([C@H](OC(=O)c3ccccc3)[C@]3(O)C[C@H](OC(=O)[C@H](O)[C@@H](NC(=O)c4ccccc4)c4ccccc4)C(C)=C1C3(C)C)[C@]1(OC(C)=O)CO[C@@H]1C[C@@H]2O [Paclitaxel]	inactive: 0.773
O=C(Nc1ccc2[nH]nc(-c3ccncc3)c2c1)[C@@H]1CCN(CC(=O)N2CCN(c3ccc(-c4ncccn4)cc3)CC2)C1	inactive: 0.912
COc1cc2c(Oc3ccc4[nH]c(C)cc4c3F)ccnc2cc1OCC1(N)CC1 [Anlotinib]	inactive: 1.45

Compound	cell-surface PD-L1 MFI ratio
Cc1cnc(-c2cnc(NCCNc3ccc(C#N)cn3)nc2-c2ccc(Cl)cc2Cl)[nH]1	inactive: 1.06
Nc1ccccc1NC(=O)c1ccc(CNC(=O)OCc2cccnc2)cc1 [Entinostat (MS-275)]	inactive: 0.952
Cc1cc(C(C)Nc2ccccc2)c2nc(N3CCOCC3)cc(=O)n2c1 (stereo not drawn)	inactive: 0.952
O=S(=O)(c1cccc2c(I)cccc12)N1CCCNCC1	active: 0.626
CNC(=O)c1ccccc1Sc1ccc2c(/C=C/c3ccccn3)n[nH]c2c1 [Axitinib]	inactive: 2.14
CCc1ccc(/C=C2/SC(=S)NC2=O)cc1	inactive: 0.798
CCCc1cc(C)[nH]c(=O)c1CNC(=O)c1cc(-c2ccc(N3CCN(C(C)C)CC3)nc2)cc2c1cnn2C(C)C	active: 0.614
CN(c1ncccc1CNc1nc(Nc2ccc3c(c2)CC(=O)N3)ncc1C(F)(F)F)S(C)(=O)=O	active: 0.74
CCn1c2ccccc2c2cc(-n3nncc3-c3ccccc3)ccc21	inactive: 1.3
COCC[n+]1c2c(n(Cc3cnccn3)c1C)C(=O)c1ccccc1C2=O [YM155 (Sepantronium Bromide)]	inactive: 1.46
N#CC1(c2ccc(NC(=O)c3cccnc3NCc3ccncc3)cc2)CCCC1 [Apatinib]	inactive: 1.63
O=C(c1cc(Cc2n[nH]c(=O)c3ccccc23)ccc1F)N1CCN(C(=O)C2CC2)CC1 [Olaparib]	inactive: 1.03
Nc1cccc(-c2cc3c(Oc4cccc(O)c4)ncnc3[nH]2)c1	inactive: 1.31
O=c1cc(N2CCOCC2)oc2c(-c3cccc4c3sc3ccccc34)cccc12	active: 0.542
O=C(Nc1cc(C(F)(F)F)ccc1N1CCCCC1)c1ccncc1	inactive: 1.16
C[C@@H](N)[C@H]1CC[C@H](C(=O)Nc2ccncc2)CC1	inactive: 0.976
CC(C)N1CCN(Cc2cnc(-c3cc(-c4cccc5[nH]ccc45)cc4[nH]ncc34)o2)CC1	inactive: 1.06
COc1ccc(Oc2cc(NCCC(F)(F)F)c3ncc(-c4ccc(C(=O)NC5CC5)c(C)c4)n3n2)c(F)c1F	active: 0.632
CCOc1cc2ncc(C#N)c(Nc3ccc(OCc4ccccn4)c(Cl)c3)c2cc1NC(=O)/C=C/CN(C)C [Neratinib (HKI-272)]	inactive: 1.11
